The record followed here is ChEMBL document CHEMBL4888484, “Replenishing the malaria drug discovery pipeline: Screening and hit evaluation of the MMV Hit Generation Library 1 (HGL1) against asexual blood stage Plasmodium falciparum ,using a nano luciferase reporter read-out” (2022).

In all, about 150,000 compounds went through this assay and about 540 (0.36%) showed an effect of 50% or more. Some of the results follow.

The assay concerns Plasmodium falciparum. In words: Primary screen in NF54 nanoGlo assay, in single point, at 2uM, 72h; a lower Z score goes with more inhibition. The assay is classed as functional, Erythrocyte. The conditions noted are these: timepoint 72 hour.
`CCn1cnnc1CNC(=O)[C@H]1CC(=O)N(C)C1`: the “% Inhibition” value is on record as 2% and the Z score is -0.21.
Turning to `CC(C)n1cnc(C(=O)Nc2nc(CN3CCCCCC3)cs2)c1`, the “% Inhibition” value is on record as -5% and the Z score was determined as 0.47.
As to `C[C@@H](C(=O)N1CCN(Cc2ccc(O)cc2)CC1)N1CCN(C)CC1`, the “% Inhibition” value was -10% and the Z score was 1.18.
For the compound `O=C(Nc1ccccc1)OCc1cc(-c2ccccc2Cl)on1`, the “% Inhibition” value is -2% and the Z score turned out to be 0.29.
The like results for `CC(=O)N[C@H]1C[C@@H](c2cccc(O)c2)O[C@@H](C2(C)CCN(C)CC2)C1` were, in that order, -5% and 0.95.
Turning to `CC(C)[C@H](CNC(=O)c1cc(O)c2cccc(F)c2n1)N1CCCC1`, the “% Inhibition” value was 12% and the Z score is listed as -1.61.
For `Cc1ccc(C)c(NC(=O)N2CC[C@H](N3CCN(C)CC3)[C@H](CCC(=O)O)C2)c1`, the “% Inhibition” value was -9% and the Z score worked out at 1.69.
Taken in the same sequence, the figures for `O=C(N[C@H]1CCOc2ccccc21)c1cc2c(s1)CCCC2` were -1% and 0.13.
The like results for `CCO[C@H]1COC[C@@H]1Nc1ncc(C#N)c(N)n1` were, in that order, -2% and 0.43.
The like results for `CCN(CCO)C[C@@H]1CN(C(=O)c2cc3ccccc3cc2O)C[C@@H]1CO` were, in that order, -12% and 1.65.
Consider `C[C@@H](C1CCN(C(=O)c2ccc3occc3c2)CC1)N1CCN(C)CC1`, for which the “% Inhibition” value is listed as -8% and the Z score was 1.28.
The like results for `Cc1ccc(Nc2[nH]nnc2C(=O)NCc2cccc(Cl)c2)cc1C` were, in that order, -9% and 1.05.
In the case of `O=C(CCc1ccc(F)cc1F)N1CC[C@H]2NCCC[C@]2(C(=O)O)C1`, the “% Inhibition” value is -15% and the Z score worked out at 2.89.
Turning to `COc1ccccc1CN1CCN(Cc2ccccn2)[C@H]2CS(=O)(=O)C[C@H]21`, the “% Inhibition” value is recorded as 1% and the Z score is -0.08.
Taken in the same sequence, the figures for `O=C(Nc1ccc(-n2nn[nH]c2=O)cc1)c1ccc2cc[nH]c2c1` were -50% and 5.9.
The like results for `Cc1ccc(-c2nc(CN3N=NC4C(=O)N(c5cc(C)cc(C)c5)C(=O)C43)c(C)o2)cc1` (centres undefined) were, in that order, -9% and 0.94.
Take `CCCc1cc(C(=O)N[C@H](CO)COCc2ccccc2)[nH]n1`: the “% Inhibition” value is -7% and the Z score was 0.87.
Taken in the same sequence, the figures for `COc1ccc(CN(C(=O)c2cnc(C3CC3)nc2)C2CCCC2)c(OC)c1` were 27% and -2.44.
The like results for `COCc1noc(-c2cc(C3CC3)nc3ccccc23)n1` were, in that order, 2% and -0.34.
With `O=C1CC[C@H](C(=O)NCc2ccc(N3CCCCC3)nc2)CN1`, the “% Inhibition” value is given as -15% and the Z score turned out to be 2.43.
Taken in the same sequence, the figures for `CCCc1[nH]nc(-c2cccc(OC)c2)c1NC(=O)Nc1cc(OC)cc(OC)c1` were -9% and 1.12.
Regarding `CC1CC(c2cccnc2)N(C(=O)C(O)C2CCCCC2)C1` (centres undefined), the “% Inhibition” value is -7% and the Z score was found to be 1.3.
Taken in the same sequence, the figures for `CC1(C)C2CN(C(=O)C3(C4CCC4)CCC3)CC21` (centres undefined) were -2% and 0.16.
Taken in the same sequence, the figures for `O=C(c1cc(-n2ccnn2)ccc1F)N1CC[C@@](O)(Cc2ccc(F)cc2)C1` were -11% and 1.42.
Taken in the same sequence, the figures for `CC(C)c1nnc(COc2ccc(Cl)c(CO)c2)s1` were -2% and 0.36.
Turning to `CCn1ncc(CN2CCN(S(=O)(=O)c3ccc(N4CCCC4=O)cc3)CC2)c1C`, the “% Inhibition” value is on record as 24% and the Z score was -3.52.
The like results for `O=C1NCCN(C(=O)c2cc(-c3ccccc3F)n[nH]2)[C@H]1c1ccc(F)cc1` were, in that order, -8% and 1.
Taken in the same sequence, the figures for `O=C([C@@H]1CCCc2[nH]cnc21)N1CC(COc2ccccc2)C1` were 7% and -0.99.
In the case of `Cc1cc(C)c(CN(C)Cc2nc(-c3ccccn3)no2)cc1C`, the “% Inhibition” value is listed as -11% and the Z score came out at 1.83.
As to `O=C(Cc1ccccc1)Nn1cc(-c2ccc(Cl)cc2)sc1=O`, the “% Inhibition” value is 4% and the Z score is reported as -0.59.
Taken in the same sequence, the figures for `CCc1nnc(N2C[C@H]3CC[C@@H](C2)N(Cc2c(C)noc2C)C3=O)s1` were -6% and 1.08.
Taken in the same sequence, the figures for `O=C(Nc1ccccc1N1CCCC1)NC1C2CCC(C2)C1CO` (centres undefined) were -1% and 0.18.
`O=C(Cn1nnc2ccccc21)Nc1cccc(C(=O)NC2CC2)c1`: the “% Inhibition” value is -7% and the Z score was 1.29.
The like results for `N#Cc1cccc(NC(=O)N2CC(Oc3ccccc3Cl)C2)c1` were, in that order, -4% and 0.41.
The like results for `CC(=O)NCCNC(=O)c1ccc(N2CCCCC2)cc1` were, in that order, -6% and 0.96.
Taken in the same sequence, the figures for `Oc1cc(CN2CCC(F)(F)CC2)nc2c(F)cccc12` were -11% and 1.48.
On to `Cc1cccc(C(=O)N2CCCN(C(=O)CNC(=O)C3CCCC3)CC2)c1`, for which the “% Inhibition” value was -1% and the Z score amounted to 0.08.
Taken in the same sequence, the figures for `CCN(CC(=O)N1CCO[C@@H](C)C1)Cc1cccs1` were -7% and 1.06.
On to `C[C@H](O)c1onc(-c2cccs2)c1C(=O)NCc1ccccn1`, for which the “% Inhibition” value was -16% and the Z score came to 2.01.
The like results for `Cc1cccc2nnc(N3CCN(C(=O)c4ccc(F)cc4)CC3)n12` were, in that order, 30% and -3.39.
`CCCN(Cc1nccn1C)C(=O)CN1CCNC1=O`: the “% Inhibition” value amounted to 0% and the Z score amounted to 0.04.
Taken in the same sequence, the figures for `Cc1nc2cc(NC(=O)CCn3cnnn3)ccc2[nH]1` were -8% and 1.07.
